# Assay results reported in PubChem BioAssay AID686971 (National Center for Advancing Translational Sciences (NCATS), 2013).
# Several values for one entry are separate records, joined by “and”; a condition that tells them apart may be missing. Equal values may be shown once. About 7,500 (2.1%) of roughly 360,000 compounds were called active. The inconclusive results got no clear call from the source; some entries with a clear call stand among them for comparison. Calls follow the shape of the dose curve; as a rule, active = well fitted cell-killing curve with a large enough effect; inconclusive = small, poorly fitted or top-dose-only effect, or effect the other way, or another doubt; inactive = no such curve, though single readings can be large or run the other way. A potency beside an inconclusive call is a rough fit, not a confirmed value.
# Assay: qHTS for induction of synthetic lethality in tumor cells producing 2HG: qHTS for the HT-1080-IDH1KD cell line;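 as to activity, negative = toxicity: 0% = DMSO wells and -100% = cell-free medium wells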
# Details: HT-1080 IDH1 knockdown viability, ATP luminescence, 48 h; activity, negative = toxicity: at 46.1 µM (top of the series) unless noted
# Outline: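 In this qHTS, HT-1080 cells depleted of IDH1 are exposed for 48 h at 37 °C to compound titrations. Toxicity is scored from CellTiter-Glo luminescence, with DMSO as full viability and medium alone as none.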
# Potency is read from the fitted curve at half-maximal effect; tags tell the direction and shape of the fitted curve.
Compound,Potency,"activity, negative = toxicity"
CCN(CC)P(=O)(Nc1ccc(Br)cc1)c1c(C)nn(CCC#N)c1NC(=O)c1ccc(Cl)cc1 (stereo unspecified),inactive,
Cn1c(N=Nc2ccc(N3CCOCC3)cc2)[n+](C)c2ccccc21,"inconclusive: 20.6 µM [cytotoxic, partial curve]",
Cc1ccccc1-c1cc(C(=O)Nc2sc(C(=O)OC(C)C)c(C)c2C#N)c2ccccc2n1,"inconclusive: 3.26 µM [cytotoxic, full curve]",
NC(N)=N/N=C/c1ccc(OCc2ccccc2)cc1,"inconclusive: 25.1 µM [cytotoxic, single point]",
Cc1cc(C)c(C(=O)N2CCC(N3CCC(C(=O)NC(C)C)CC3)CC2)o1,inactive,
O=C(O)c1ccc(N/N=C/c2ccc3nccnc3c2)cc1,"inconclusive: 18.4 µM [cytotoxic, partial curve]",
O=C(CNc1ccccc1Cl)c1ccc(Br)cc1,"inconclusive: 29.1 µM [cytotoxic, single point]",
COC(=O)C1=C(C)N(Cc2ccc(C)cc2)C(=O)/C1=C\c1cc(OC)c(OC)c(OC)c1,active: 16.4 µM,
Cc1ccc(-c2nc3ccc(C)cn3c2Cc2ccsc2)cc1,"inconclusive: 29.1 µM [cytotoxic, single point]",
C[n+]1c(-c2ccccc2)cc2c(=Cc3ccccc3)c3ccccc3n21,active: 16.4 µM,
CCOC(=O)N1CCN(S(=O)(=O)N2CCCC(C(=O)NCc3ccccc3OC)C2)CC1 (stereo unspecified),inactive,
Cc1ccccc1-n1c(SCC(=O)N2CCCCC2)nc(O)cc1=O,inactive,
Cc1cccnc1C(NC(=O)C1CCN(Cc2ccc3ccccc3n2)CC1)c1ccc(Cl)cc1 (stereo unspecified),"inconclusive: 29.1 µM [cytotoxic, single point]",
CC1=C([N+](=O)[O-])C(c2cccc(Br)c2)C2=C(N1)c1ccccc1C2=O (stereo unspecified),active: 1.3 µM,
CCOC(=O)N1CCC(NC(=S)Nc2ccc3nc(N4CCN(CC)CC4)cc(C)c3c2)CC1,"inconclusive: 25.9 µM [cytotoxic, single point]",
O=C(CSc1nnc(CNC(=O)c2c(F)cccc2Cl)o1)NCc1ccccc1,inactive,
Oc1ccc(CN2CCN(c3ccccc3)CC2)c2cccnc12,active: 0.708 µM,
CC(=O)Nc1ccc(NC(=O)c2nc(-c3ccccc3)oc2C)cc1,inactive,
c1ccc(C2[C@H]3CN(Cc4cccnc4)[C@H](c4ccccc4)C34CC2(c2ccccc2)C4)cc1 (stereo partly specified),"inconclusive: 29.1 µM [cytotoxic, single point]",
CCCCCNC(=O)C(c1ccc(OC)cc1)n1c(=O)c(-c2ccco2)nc2ccccc21 (stereo unspecified),active: 14.6 µM,
O=c1ccc2ccccc2c2ccccc12,active: 5.8 µM,
CCNC(=S)N1CCC(Cc2ccccc2)CC1,inactive,
O=P(c1ccccc1)(c1ccccc1)C(O)c1ccncc1 (stereo unspecified),inactive,
CC(=O)Oc1ccc(C(=O)Nc2cc(C)on2)cc1,inactive,
O=S(=O)(Nc1ccc(O)c2ccccc12)c1cccs1,active: 20.6 µM,
O=C(O)/C=C/c1ccc(S(=O)(=O)Nc2ccc(C(=O)NCC(=O)O)cc2)cc1,inactive,

Compound,Potency,"activity, negative = toxicity"
CN(CCc1ccccc1)c1cc2c(c3c1ccn3C)C1CCC2O1 (stereo unspecified),"inconclusive: 18.4 µM [cytotoxic, single point]",
Cc1nc(Cl)c(C(=O)NC(=O)Nc2cccc(C(F)(F)F)c2)c(C)c1[N+](=O)[O-],inactive,
O=C1C=CC(=NN=C(c2ccccc2)c2ccccc2)C=C1,"inconclusive: 16.4 µM [cytotoxic, single point]",
Cc1cccc(N2CCN(C(=O)/C=C/c3cccs3)CC2C)c1 (stereo unspecified),inactive,
Cc1cccc(Nc2nc(NCc3ccco3)c3ccccc3n2)c1,active: 18.4 µM,
O=C(O)C(Cc1ccccc1)N=Cc1c(O)c2ccccc2oc1=O (stereo unspecified),"inconclusive: 18.4 µM [cytotoxic, partial curve]",
O=C(CCNC(=O)c1ccccc1)OCC(=O)c1ccccc1,inactive,
Cc1sc2ncnc(Sc3nnnn3-c3ccccc3)c2c1C,active: 7.08 µM,
CN(C(=O)c1ccc(S(=O)(=O)c2cccc(Cl)c2)c([N+](=O)[O-])c1)C1CCCCC1,"inconclusive: 16.4 µM [cytotoxic, single point]",
CC(C)C[C@H]1CN(CCCC[C@@H]2CNC(=O)C(=O)N2CC2CCCCC2)C(=O)C(=O)N1CCc1ccccc1,"inconclusive: 18.4 µM [cytotoxic, single point]",
COc1ccc(CCC(=O)NNC(=S)Nc2cccc(C(C)=O)c2)cc1,,inconclusive: -1.24% [cytotoxic]
CC(=O)c1ccc(-c2cnc3c(NC=O)cc(-c4cccc(C(=O)N(C)C)c4)cn23)cc1,"inconclusive: 14.6 µM [cytotoxic, partial curve]",
CCOc1ccc(/C=C2\CCc3ccccc3C2=O)cc1,"inconclusive: 7.31 µM [rising, partial curve, poor fit]",
COc1ccc(Cc2nc(-c3ccc(Cl)cc3)no2)cc1,inactive,
Cc1csc(NC(=O)c2ccc(COc3ccccc3)o2)n1,"inconclusive: 0.461 µM [cytotoxic, full curve, poor fit]",
Cc1cc(C)c2c3c(sc2n1)C(c1ccccc1)C(C#N)=C(N)O3 (stereo unspecified),"inconclusive: 35.5 µM [cytotoxic, single point]",
CCN(CC)C(=O)c1cc2c(=O)n3cccc(C)c3nc2n1C,inactive,
O=C(NCCNC1CCC(c2ccccc2)CC1)c1cccs1 (stereo unspecified),"inconclusive: 23.1 µM [cytotoxic, partial curve]",
O=C(c1ccccc1)c1c[nH]c(C(=O)NNc2ccccc2)c1,"inconclusive: 9.2 µM [cytotoxic, partial curve]",
Cc1ccc(Nc2nc3nonc3[nH]c2=O)cc1C,"inconclusive: 23.1 µM [cytotoxic, single point]",
CC(=O)Nc1ccc(-c2ccnc3c2CC(C(=O)Nc2ccccc2)O3)cc1 (stereo unspecified),active: 18.4 µM,
O=c1[nH]c(Sc2ccc([N+](=O)[O-])cc2[N+](=O)[O-])nc2ccccc12,"inconclusive: 29.1 µM [cytotoxic, single point]",
Cc1ccc(C(=O)NC(Cc2ccccc2C(F)(F)F)C(=O)O)cc1 (stereo unspecified),inactive,
CCOC(=O)c1sc(Nc2ccc(F)cc2)nc1C,inactive,
Cc1ccc(Nc2nc(N)nc(CC#N)n2)cc1,active: 7.08 µM,
CN1CCN(CCNC(=O)c2ccc3nc(-c4ccc(F)cc4)c(-c4ccc(F)cc4)nc3c2)CC1,active: 23.1 µM,

Compound,Potency,"activity, negative = toxicity"
COc1ccc([C@H]2CC(=O)C=C(c3ccc4ncccc4c3)C2)cc1,"inconclusive: 29.1 µM [cytotoxic, single point]",
CCOc1ccccc1CNC(=O)c1cc2oc3ccccc3c2n1CC,"inconclusive: 23.1 µM [cytotoxic, partial curve]",
CC(=NNC(=S)N(Cc1ccccn1)Cc1ccccn1)c1cnccn1,active: 0.58 µM,
Cc1ccc(-c2csc(NC(=O)CSc3nnc4c(n3)[nH]c3ccccc34)n2)cc1,active: 20.6 µM,
Cc1ccn2c(-c3csc(NCc4ccccc4)n3)c(C)nc2c1,"inconclusive: 16.4 µM [cytotoxic, partial curve]",
CC1C(=O)N(Cc2cn(CCC3OCCCO3)nn2)CCS(=O)(=O)N1Cc1ccc(-c2ccc(Cl)c(Cl)c2)cc1 (stereo unspecified),active: 20.6 µM,
N#CC1=C(N)NC(SCc2ccccc2)=C(C#N)C12CCCCC2,active: 7.08 µM,
CCNC(=S)N/N=C/c1ccc(OCC(=O)Nc2ccc(C)cc2)cc1,active: 10 µM,
CN(C)Cc1c(C(=O)N/N=C/c2ccccc2OCc2c(F)cccc2Cl)nnn1-c1nonc1N,active: 8.2 µM,
Cc1ccc([N+](=O)[O-])cc1N/C=C/C(=O)c1ccco1,"inconclusive: 35.5 µM [cytotoxic, single point]",
COc1ccc(/C(N)=N/OC(=O)CSc2ccccc2)cc1OC,inactive,
CCn1c(C)c(C)c2cc(C(=O)NC3CCCCCC3)ccc21,inactive,
COc1ccc(NS(=O)(=O)NC(=O)c2c(C)n(C)c3ccccc23)cc1,"inconclusive: 32.6 µM [cytotoxic, single point]",
COc1ccc(C(=O)Oc2ccc(F)cc2C(=O)/C=C/c2ccc(OC)c(OC)c2)cc1,"inconclusive: 29.1 µM [cytotoxic, single point]",
CCN1C(=O)N(S(=O)(=O)c2ccc(C)cc2)[C@@H](c2ccccc2)C(C(=O)OC)=C1C,"inconclusive: 29.1 µM [cytotoxic, single point]",
O=C(O)c1cccc(Sc2cc(Cl)ccc2C(=O)O)c1,inactive,
CN(C)CCCN(C(=O)c1sc2ccccc2c1Cl)c1nc2c(F)cccc2s1,inactive,
C=CCNc1nc(Cl)nc(Nc2ccc(OC)cc2)n1,inactive,
COc1cc2nc(N3CCN(C(=O)C4COc5ccccc5O4)CC3)nc(N)c2cc1OC (stereo unspecified),"inconclusive: 25.1 µM [cytotoxic, single point] and inconclusive: 29.1 µM [cytotoxic, single point]",
C/C(Cl)=C\Cn1c(O)c(N=O)c2ccccc21,"inconclusive: 14.6 µM [cytotoxic, partial curve]",
CN(CCO)S(=O)(=O)c1ccc2c(c1)C(=NNC(N)=O)c1cc(S(=O)(=O)N(C)CCO)ccc1-2,inactive,
CCCCCC(=O)Nc1cc(S(=O)(=O)N2CCOCC2)ccc1N1CCCC1,inactive,
Cc1cc(CNC(=O)c2ccc3c(c2)OCO3)c2ccccc2n1,"inconclusive: 23.1 µM [cytotoxic, single point]",
Nc1cc(-c2ccc(Br)cc2)nn1S(=O)(=O)c1cccc2nsnc12,"inconclusive: 23.1 µM [cytotoxic, single point]",
